Data as given in paper PMC4336329 (PLoS ONE, 2015).
Screen size: about 310,000 compounds; about 2,200 (0.71%) showed an effect of 50% or more. Effects have a minus sign here. The list shows a part of the results.

These molecules were tested against human ether-à-go-go-related gene (hERG) potassium channel (human, UniProt Q12809) (assay: primary screen, population patch clamp on CHO cells stably expressing hERG).
human ether-à-go-go-related gene (hERG) potassium channel, sequence (Q12809 whole entry, looked up): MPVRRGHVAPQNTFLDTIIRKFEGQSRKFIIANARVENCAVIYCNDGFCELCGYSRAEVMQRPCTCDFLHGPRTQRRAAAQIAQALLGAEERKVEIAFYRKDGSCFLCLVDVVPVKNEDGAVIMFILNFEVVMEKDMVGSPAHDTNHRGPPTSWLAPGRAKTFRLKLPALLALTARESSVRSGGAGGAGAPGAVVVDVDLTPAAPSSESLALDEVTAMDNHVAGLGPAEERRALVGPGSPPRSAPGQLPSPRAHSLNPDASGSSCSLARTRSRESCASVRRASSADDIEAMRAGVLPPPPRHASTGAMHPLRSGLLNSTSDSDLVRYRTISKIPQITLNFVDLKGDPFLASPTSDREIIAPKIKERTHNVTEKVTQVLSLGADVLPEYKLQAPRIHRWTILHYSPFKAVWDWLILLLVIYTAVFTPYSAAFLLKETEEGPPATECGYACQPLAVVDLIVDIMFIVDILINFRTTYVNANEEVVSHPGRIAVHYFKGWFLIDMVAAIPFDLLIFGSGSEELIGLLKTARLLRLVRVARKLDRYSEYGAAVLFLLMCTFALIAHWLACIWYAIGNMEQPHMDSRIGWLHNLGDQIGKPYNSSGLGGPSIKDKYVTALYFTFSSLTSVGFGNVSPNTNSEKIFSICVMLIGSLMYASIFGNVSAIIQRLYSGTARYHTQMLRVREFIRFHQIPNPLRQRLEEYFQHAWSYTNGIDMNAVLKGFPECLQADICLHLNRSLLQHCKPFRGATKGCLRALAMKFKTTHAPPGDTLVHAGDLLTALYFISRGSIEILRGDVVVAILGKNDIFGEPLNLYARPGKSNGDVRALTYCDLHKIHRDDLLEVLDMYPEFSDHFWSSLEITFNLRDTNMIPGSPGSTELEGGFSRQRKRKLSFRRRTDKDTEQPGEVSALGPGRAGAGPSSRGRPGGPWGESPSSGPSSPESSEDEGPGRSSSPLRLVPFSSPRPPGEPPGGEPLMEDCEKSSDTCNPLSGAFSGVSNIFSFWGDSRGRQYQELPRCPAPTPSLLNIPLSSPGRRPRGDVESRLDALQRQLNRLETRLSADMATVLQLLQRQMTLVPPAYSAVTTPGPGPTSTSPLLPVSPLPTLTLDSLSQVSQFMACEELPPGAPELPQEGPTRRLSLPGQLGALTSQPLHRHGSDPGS

SMILES	hERG current change (%, negative = inhibition) at 1uM
COc1cccc(-c2nc(CS(=O)(=O)CC(=O)NC3CC3)c(C)o2)c1	28.1%
C=C(C)CSc1nnc([C@H](CCSC)NC(=O)OC(C)(C)C)o1	9.09%
COc1ccc(S(=O)(=O)NCc2ccco2)cc1C(=O)N1CCOCC1	18.4%
CCOc1ccc(N2CC(C(=O)OC)CC2=O)cc1 (stereo not drawn)	3.56%
Cc1ccc(-c2nn(-c3cccc(F)c3)cc2CN(Cc2nccn2C)C(C)C)o1	8.2%
CCOC(=O)c1c(C)[nH]c(C(=O)COC(=O)C(C)Oc2ccc(Cl)cc2Cl)c1C (stereo not drawn)	9.35%
COC(=O)c1ccc(COC(=O)c2cccnc2Cl)cc1	7.44%
COC(=O)Cn1c(=O)c(C)nc2ccccc21	9.09%
C=CCN1C(=O)/C(=C/c2ccc(O)c(OC)c2)S/C1=N/c1nccs1	-4.95%
NC(=O)C1(NC(=O)[C@@H]2CC3(CC(c4cccc(NC(=O)[C@@H]5CCC(=O)N5)c4)=NO3)CN2C(=O)Cc2ccc(Cl)cc2)CC1 (stereo partly drawn)	22%
Cc1cccc(NC(=S)N2CCN(C(=O)C3CCCO3)CC2)c1 (stereo not drawn)	13.9%
CCOc1ccc(/C(O)=C2\C(=O)C(=O)N(c3ccc(OC)cc3)C2c2ccccc2[N+](=O)[O-])cc1 (stereo not drawn)	1.9%
CCOC(=O)c1ccc(NC(=O)CN2C(=O)CSC(C)C2=O)cc1 (stereo not drawn)	14.1%
O=C(CCCc1nc2ccccc2s1)N1CCN(S(=O)(=O)c2cccs2)CC1	0.245%
O=C1c2ccccc2CN1C(CO)Cc1ccccc1 (stereo not drawn)	14%
Cc1cccc(NS(=O)(=O)c2ccc3nc(-c4ccccc4)[nH]c3c2)c1C	7.69%
CN=c1scc(-c2cccs2)n1/N=C/c1ccc(O)c(O)c1O	4.88%
COc1ccc(S(=O)(=O)n2nc(OC(=O)c3cccs3)cc2N)cc1	2.34%
CCOc1cc(/C=N/O)ccc1OCc1ccc(F)cc1	11.9%

SMILES	hERG current change (%, negative = inhibition) at 1uM
N#Cc1cccc(Cn2nnc(-c3ccccc3)n2)c1	2.53%
O=C1c2cccnc2C(=O)N1Cc1ccc(S(=O)(=O)NCc2ccco2)s1	14.8%
Cc1ccc(N=C(NOC(=O)c2ccccc2)c2nonc2N)c(C)c1	8.17%
O=C(Oc1c(Cl)cc(Cl)c2ccccc12)N1CCCC1	0.394%
COc1ccc(NC(=S)N2CCN(S(=O)(=O)c3ccc(C)cc3)CC2)cc1	18.7%
Cc1c(C(=O)NC(=S)Nc2ccc(N3CCOCC3)cc2)cccc1[N+](=O)[O-]	7.16%
O=C(Nc1ccc(O)cc1)c1ccc2c(c1)C(=O)N(Cc1ccccc1)C2=O	-3.21%
CC(C)(C)C1CCC2(CC1)CC(=O)c1ccccc1O2 (stereo not drawn)	15.9%
Cc1ccc(NC(=O)CSCC(=O)NCc2ccco2)cc1	8.46%
CCCN(CCC)CCNc1c(NC2CCN(C(=O)OCC)CC2)c(=O)c1=O	15.3%
COc1ccc(C2=NOC(C(=O)Nc3cccnc3Cl)C2)cc1 (stereo not drawn)	10.7%
CN(C)c1ccc(N/C=C/C(=O)c2ccc(F)cc2)cc1	18.2%
COC(=O)c1ccc(NC(=O)Nc2ccccc2C)cc1	19.6%
O=C(O)C(=O)O.OCCNCCOCCOc1ccccc1-c1ccccc1	13.7%
CCOC(=O)CSc1nc(=O)n2cccc(C)c2n1	16.2%
COc1ccc(CCN2Cc3c(cccc3[N+](=O)[O-])C2=O)cc1OC	12.6%
CC(C)OC(=O)C1C(=O)CC(C)(O)C(C(=O)OC(C)C)C1c1cccc([N+](=O)[O-])c1 (stereo not drawn)	18.1%
Br.CCOC(=O)c1c(CSC(=N)N)n(C)c2cc(Br)c(OC(C)=O)cc12	-36.7%
S=C(Nc1ccc(Cl)cc1)NC1CC2CCC(C1)N2Cc1ccccc1 (stereo not drawn)	-32.4%

SMILES	hERG current change (%, negative = inhibition) at 1uM
O=[N+]([O-])c1ccc(-c2nnc(CNC3CCCC3)o2)cc1	1.43%
O=C(CSc1nc2ccccc2o1)Nc1ccccc1N1CCCCCC1	13.1%
CCC(=O)N/N=C(\C)CC(=O)Nc1ccc2ccccc2c1	16.8%
N#Cc1nc(-c2ccccc2Cl)oc1N1CCCCC1	5.73%
CC1CCN(S(=O)(=O)c2ccc([N+](=O)[O-])cc2)CC1	10.6%
Cc1ccc(S(=O)(=O)N2CCC(C(=O)NC3CCCC3)CC2)cc1Cl	9.67%
CN(C)CCCNC(=O)C(=O)Nc1cc2c3c(c1)CC(=O)N3CCC2	15.7%
O=C(O)C(NS(=O)(=O)c1ccc(F)cc1)c1ccccc1 (stereo not drawn)	10.7%
O=C(NCCN1CCOCC1)c1ccc(NS(=O)(=O)c2cccc([N+](=O)[O-])c2)cc1	4.59%
Cc1c(Cl)cnc(NC(=O)COC(=O)c2ccc([N+](=O)[O-])s2)c1Cl	6.35%
Clc1cccc2sc(N3CCCC3)nc12	10.6%
Cc1nn2c3c(cnc2c1-c1ccc(Cl)cc1)C(=O)CC(c1ccco1)C3 (stereo not drawn)	7.8%
COc1ccc(NC(=O)Nc2ncccc2C)cc1	11.6%
Cc1cc(CNC(=O)c2ccc(C)c([N+](=O)[O-])c2)c2ccccc2n1	5.88%
O=C1NCCN1C(=O)c1cccc(Cl)c1	7.64%
Cc1ccc(NC(=O)C2CC2C)c(Cl)c1 (stereo not drawn)	12.5%
O=C(CSc1nc2cc(Cl)c(Cl)cc2[nH]1)c1ccc2c(c1)OCO2	10.5%
Cl.OCCNCc1cc(Br)ccc1OCc1ccccc1Cl	-1.56%
COc1ccc(C(=O)C[n+]2ccc(N(C)C)cc2)cc1.[Cl-]	16.6%
